These results are taken from the RNAGym collection of RNA variant scans (doi:10.1093/nar/gkz1192).

B1: CPEB3 Ribozyme (parent)
chain: UAACAGGGGGCCACAGCAGAAGCGUUCACGUCGCAGCCCCUGUCAGAUUCUGGUGAAUCUGCGAAUUCUGCUGUAUAUCUC

The source gives no read counts; variants with many changes may rest on few reads.

The variants in this series derive from B1. Briefly: self-cleavage, relative activity (ratio to wild type); higher = more cleavage; in vitro, sequencing. In short, it runs like this:
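Barcoded CPEB3 ribozyme mutants, produced by rounds of error-prone PCR, self-cleaved while being transcribed with T7 RNA polymerase for 5 hours at 37°C and during a subsequent 15 min DNase I step before EDTA was added. Sequencing of template-switched cDNA on Illumina gave cleaved and total reads, and DNA sequencing assigned barcodes to variants. Each variant's relative activity is its cleaved/total read fraction divided by the unmutated ribozyme's fraction, averaged across three batches. A variant needed a minimum of 5 reads.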
UAACAGGGGGCCACGGCAGAAGCGUUCUCGUCGCAGCCCCUGUCAGAUUCUGGUGAAUCUGCGAAUUCUGCUGCAUAUCUC: the self-cleavage was 0.56. On to UAACAGGGGGCCACGGCAGAAGCGUUCACGUCGCAGCCCCUGUCAGGUUCUGGUGAAUCUGCGAGUUCUGCUGUAUAUCUC, for which the self-cleavage was 0.29. For UAACAGGGGGCCACGGCAGAAGCGUUCACGUCGCAGCCCCUGUCCGAUUCUGGUGAAUCUGCGAAUUCUCCUGUAUAUCUC the value was 0.14; for UAACAGGGGGCCACGGCAGAAGCGUUCUCGUCGCAGCCCCUCUCAGACUCUGGUGAAUCUACGAAUUCUGCUGUAUAUUAC, 0.07; for UAACAGGGGGCCACGGCAGAAGCGUUCACGUCGCGGCCCCUGUCAGAUUCUGGGGAAUCUACGAAUUCUGCCGUAUAUCUC, 0.53. Consider UAACAGGGGGCCACGGCAGAAGCGUUCACGUCGCAGCCCCUGUCAGUUCCUGGUGAAUCUGCGAAUUCUGCUGUAUAUCCC, for which the self-cleavage was 0.32.

In the case of UAACAGGGGGCCACGGCAGAAGCGUUCACGUCGCGGCCCCUGUCAGACUCUGGUGUAUCUGCGUAUUCAGCUGUAUAUCGC, the self-cleavage was found to be 0.11. As for UAACAGGGGGCCACGGCAGAAGCGUUCACGUCGCGGCCCCUGUCAGAUUCCGGUGAAUCUGCGAAUUCUGCUGUAUAUCUC, the self-cleavage turned out to be 0.58. For UAACAGGGGGCCACGGCAGAAGCGUUCACGUCGCAGCCCCUGUCAGAUUCUGGUGAUGCUGCGAAUUCCGCUGUAUAUCCC the value was 0.2; for UAACAGGGGGCCACGGCAGAAGCGUUCACGUCGCAGCCCCUGUCAGAUUCUGGUGAUUCUGCGAAAUCUGCUGUAUAUCUC, 0.31.

As for UAACAGGGGGCCACGGCAGAAGCGUUCUCGUCGCUGCCCCUGUCAGAUUCUGGUGAAUCUGCGAAUUCUGCUGUAUAUCUC, the self-cleavage turned out to be 0.23. For UAACAGGGGGCCACGGCAGAAGCGUUCACGUCGCAGCCCCUGUCUGAUUCUGGUGAAUCUGCGGAUUCUGCUGUAUAUCUC the value was 0.46. Turning to UAACAGGGGGCCACGGCAGAAGCGUUCACGUCGCAGCCCCUGUCUGAUUCUGGUGAAUCCGCGAAUUCUGCUGUAUAUCUC, the self-cleavage came to 0.14.

With UAACAGGGGGCCACGGCAGAAGCGUUCACGUCGCAGCCCCUGUCAGAUUCUGGUGAAUCUGCGAAUUCUGCUGUGUAUCCC, the self-cleavage was 0.77. For UAACAGGGGGCCACGGCAGAAGCGUUCACGUCGCAGCCCCUGUCGGAUUCUGGUGUAUCUGCGAAUUCUGCUGUAUAUCUC, the self-cleavage was found to be 0.22. As for UAACAGGGGGCCACGGCAGAAGCGUUCACGUCGCAGCCCCUGUCGGAUUCUGGUGGAUCUGCGAAUUCUGCUGUAUAUCUC, the self-cleavage worked out at 0.4. With UAACAGGGGGCCACGGCAGAAGCGUUCACGUCGCAGCCCCUGUCAGAUUCUGGUGGCUCUGCGAAUUCUGCUGUUAAUCUC, the self-cleavage came out at 0.16. The result for UAACAGGGGGCCACGGCAGAAGCGUUCACGUCGCAGCCCCUGUCUGAUUCUGGUGAAUCUGCGAAAUCUGCUGUAUUUCUC reads 0.18; that for UAACAGGGGGCCACGGCAGAAGCGUUCACGUCGCAGCCCCUGUCAGAUUCUGGUGAAUCUGCGGAUUCUGCUGUAUAUCAC, 0.98. For UAACAGGGGGCCACGGUAGAUGCGUACACGUCGCAGCCCCUGUCCGAUUCUGGUGAAUCGGCGAAUUCUGCUGUAUAUCUC the value was 0.07; for UAACAGGGGGCCACGGCAGAAGCGUUCACGUCGCUGCCCCUGUCAGAUUCUGGUGAAUCUGCGAAUUCUGCUGAAUAUCUC, 0.87.

For the variant UAACAGGGGGCCACGGCAGAAGCGUUCGCGCCGCAGCCCCUGUCAGAUUCUGGUGAAUCUGCGAAUUCCGCUGUAUAUCCC, the self-cleavage was 0.08. Regarding UAACAGGGGGCCACGGCAGAAGCGUUCGCGUCGCAGCCCCUGUCGGAUCCUGGUGAAUCUGCGAAUUCUGCUGUAUUUCUC, the self-cleavage stood at 0.4.

On to UAACAGGGGGCCACGGCAGAAGCGUUCACGUCGCAGCCCCUGUCUGAUUCAGGUGAAUCUGCGAAUUCUGCUGUAUAUCUC, for which the self-cleavage worked out at 0.32. For the variant UAACAGGGGGCCACGGCAGAAGCGUUCACGUCGCUGCACCUGUCGGAUUCUGGUGAAUCUGCGAAUUCUGCUGUAUAUCUC, the self-cleavage amounted to 0.06. As to UAACAGGGGGCCACGGCAGAAGCGUUCACGUCGCAGCCCCUGUCAGAUUCUGGUGUAUCUGCGAAUUCUGCUUUAUAUCUC, the self-cleavage stood at 0.8. For UAACAGGGGGCCACGGCAGAAGCGUUCACGUCGCUGCCCCUGUCAGAUUCUGGUGAAUCUGCGAAUUCUGCUGUAUAUCCC the value was 0.79. For UAACAGGGGGCCACGGCAGAAGCGUUCACGUCGCUGCCCCUGUCAGAUUCUGGCGAAUCUGCGAAUUCCGCCGUAUACCUC the value was 0.35; for UAACAGGGGGCCACGGCAGAAGCGUUCACGUCGCAGCCCCUGUCGGAUCCUGGUGAAUCUGCGAGUUCUGCCGUAUAUCUC, 0.08.

Consider UAACAGGGGGCCACGGCAGAAGCGUUCAAGUCGCAGCCCCUGUCAGGUUCUGGUGAAUCUGCGAAUUCUGCUGUAUAUCUC, for which the self-cleavage is 0.36.

For UAACAGGGGGCCACGGCAGAAGCGUUCACGUCGCUGCCCCUGUCGGAUUCUGGUGAAUCAGCGAAUUCUGCUGUAUAUCUC, the self-cleavage came to 0.31. Take UAACAGGGGGCCACGGCAGAAGGGUUCUCGUCGCAGCCCCUGUCAGAUUCCGGUGAAUCUGCGAAUUCUGCUGUAUAUCUC: the self-cleavage was 0.04. In the case of UAACAGGGGGCCACGGCAGAAGCGUUCACGUCGCGGCCCCUGCCAGAUUCUGGUGAAUCUGCGAAUUCUGCUGUAUAUCUC, the self-cleavage is 0.21. For UAACAGGGGGCCACGGCAGAAGCGUUCACGUCGCGGCCCCUGUCAGAUUCUGGUGAAUCUGCGAAUUCAGCCGUAUACCUC the value was 0.92.
